A lower IC50 marks a more sensitive line; a limit (>, <) means that the fit lies beyond the doses tested. AUC, from the same fit, is the share of area under the viability curve across the 256-fold dose range: 1 means no effect, lower means more sensitive. The top dose, if marked as inferred, was calculated from the reported fits. For some assays here: Where an entry number is given, a second screen of the drug exists; the two often differ.
Key:
Assay in all cases: Viability of human cancer cell lines after 72 h of drug (GDSC screen)
XMD8-85 = compound: COc1cc(N2CCN(C)CC2)ccc1Nc1ncc2c(n1)N(C)c1ccccc1C(=O)N2C [XMD8-85]; conditions: top dose 8 µM; top dose inferred
Procedure: (§1)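 Human cancer cell lines in 384-well plates, medium with 10% serum, drug for 72 h over a 256-fold dose range (nine 2-fold or five 4-fold steps up to the top dose). Adherent lines were fixed and stained with the nucleic acid dye Syto60, suspension lines read with resazurin; signal relative to control wells, capped at 0 and 100%. One two-parameter sigmoid per drug and line, fitted in a mixed model over all curves with the slope shared within a line.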

Wee1 inhibitor 681640 = compound: O=C1NC(=O)c2c1c(-c1ccccc1Cl)cc1[nH]c3ccc(O)cc3c21 [Wee1 inhibitor 681640]; conditions: top dose 2 µM; top dose inferred
Procedure: as §1

VX-702 = compound: NC(=O)c1ccc(N(C(N)=O)c2c(F)cccc2F)nc1-c1ccc(F)cc1F [VX-702]; conditions: top dose 2 µM; top dose inferred
Procedure: as §1

SB-525334 = compound: Cc1cccc(-c2[nH]c(C(C)(C)C)nc2-c2ccc3nccnc3c2)n1 [SB-525334]; conditions: top dose 20 µM; top dose inferred
Procedure: as §1

Olaparib = compound: O=C(c1cc(Cc2n[nH]c(=O)c3ccccc23)ccc1F)N1CCN(C(=O)C2CC2)CC1 [Olaparib]
Procedure: as §1

A-770041 = compound: COc1cc(-c2nn([C@H]3CC[C@H](N4CCN(C(C)=O)CC4)CC3)c3ncnc(N)c23)ccc1NC(=O)c1cc2ccccc2n1C [A-770041]; conditions: top dose 5.12 µM; top dose inferred
Procedure: as §1

Shikonin = compound: CC(C)=CC[C@@H](O)C1=CC(=O)c2c(O)ccc(O)c2C1=O [Shikonin]; conditions: top dose 16 µM; top dose inferred
Procedure: as §1

CGP-082996 (CINK4) = compound: CCNc1cc(NC2CCC(O)CC2)nc(Nc2ccc3c(ccn3Cc3ccccc3)c2)n1 [CGP-082996 (CINK4)]; conditions: top dose 5.12 µM; top dose inferred
Procedure: as §1

BIRB 0796 = compound: Cc1ccc(-n2nc(C(C)(C)C)cc2NC(=O)Nc2ccc(OCCN3CCOCC3)c3ccccc23)cc1 [BIRB 0796]; conditions: top dose 10 µM; top dose inferred
Procedure: as §1

BMS-536924 = compound: Cc1cc(N2CCOCC2)cc2[nH]c(-c3c(NC[C@@H](O)c4cccc(Cl)c4)cc[nH]c3=O)nc12 [BMS-536924]
Procedure: as §1

[1] = top dose 5 µM, screen: GDSC drug entry 1017, top dose inferred
[2] = top dose 10 µM, screen: GDSC drug entry 1495
[3] = top dose 4 µM, screen: GDSC drug entry 1091, top dose inferred
[4] = top dose 5.12 µM, screen: GDSC drug entry 62

Cell Line	AUC (XMD8-85)	IC50 (XMD8-85) [µM]	AUC (Wee1 inhibitor 681640)	IC50 (Wee1 inhibitor 681640) [µM]	AUC (VX-702)	IC50 (VX-702) [µM]	AUC (SB-525334)	IC50 (SB-525334) [µM]	AUC (Olaparib; [1])	IC50 (Olaparib; [1]) [µM]	AUC (Olaparib; [2])	IC50 (Olaparib; [2]) [µM]	AUC (A-770041)	IC50 (A-770041) [µM]	AUC (Shikonin)	IC50 (Shikonin) [µM]	AUC (CGP-082996 (CINK4))	IC50 (CGP-082996 (CINK4)) [µM]	AUC (BIRB 0796)	IC50 (BIRB 0796) [µM]	AUC (BMS-536924; [3])	IC50 (BMS-536924; [3]) [µM]	AUC (BMS-536924; [4])	IC50 (BMS-536924; [4]) [µM]
MONO-MAC-6 (acute myeloid leukaemia, suspension)	0.911	> 8	0.923	> 2	0.939	> 2	0.953	> 20	0.973	> 5	0.934	> 10	0.982	> 5.12	0.317	0.298	0.969	> 5.12	0.983	> 10	0.694	0.905	0.602	0.62
MRK-nu-1 (breast, suspension)	0.918	> 8	0.987	> 2	0.962	> 2	0.851	13.5	0.969	> 5	0.981	> 10	0.851	3.43	0.151	0.0949	0.836	3.01	0.99	> 10	0.984	> 4	0.965	> 5.12
MS-1 (small cell lung carcinoma, suspension)	0.858	5.51	0.975	> 2	0.964	> 2	0.945	> 20	0.981	> 5	0.96	> 10	0.907	> 5.12	0.58	1.61	0.947	> 5.12	0.982	> 10	0.938	> 4	0.971	> 5.12
NB17 (neuroblastoma, adherent)	0.971	> 8	0.948	> 2	0.984	> 2	0.78	9.55	0.984	> 5	0.932	> 10	0.895	> 5.12	0.24	0.155	0.937	> 5.12	0.972	> 10			0.799	2.9
NCI-H64 (small cell lung carcinoma, suspension)	0.995	> 8	0.98	> 2	0.995	> 2	0.996	> 20	0.996	> 5			0.996	> 5.12	0.312	0.347	0.996	> 5.12	0.992	> 10			0.996	> 5.12
NCI-H69 (small cell lung carcinoma, suspension)	0.941	> 8	0.982	> 2	0.982	> 2	0.981	> 20	0.986	> 5	0.952	> 10	0.971	> 5.12	0.752	5.86	0.948	> 5.12	0.984	> 10	0.939	> 4	0.92	> 5.12
NCI-H187 (small cell lung carcinoma, suspension)	0.987	> 8	0.985	> 2	0.987	> 2	0.791	9.81	0.981	> 5	0.949	> 10	0.966	> 5.12	0.629	2.34	0.952	> 5.12	0.988	> 10	0.987	> 4	0.762	1.98
NCI-H209 (small cell lung carcinoma, suspension)	0.944	> 8	0.799	1.04	0.978	> 2	0.536	1.58	0.702	1.21	0.722	2.81	0.986	> 5.12	0.728	4.71	0.939	> 5.12	0.975	> 10	0.978	> 4	0.986	> 5.12
NCI-H211 (small cell lung carcinoma, adherent)	0.909	> 8	0.976	> 2	0.987	> 2	0.759	6.8	0.927	> 5	0.925	> 10	0.834	3.21	0.442	0.697	0.951	> 5.12	0.983	> 10	0.951	> 4	0.882	> 5.12
NCI-H510A (small cell lung carcinoma, semi-adherent)	0.957	> 8	0.962	> 2	0.975	> 2	0.841	12.3	0.98	> 5			0.883	4.68	0.873	13.3	0.935	> 5.12	0.982	> 10			0.953	> 5.12
NCI-H526 (small cell lung carcinoma, suspension)	0.884	> 8	0.958	> 2	0.982	> 2	0.943	> 20	0.966	> 5	0.971	> 10	0.99	> 5.12	0.643	2.45	0.967	> 5.12	0.99	> 10	0.989	> 4	0.942	> 5.12
NCI-H1092 (small cell lung carcinoma, suspension)	0.976	> 8	0.99	> 2	0.977	> 2	0.825	12.1	0.978	> 5	0.985	> 10	0.988	> 5.12	0.573	1.59	0.987	> 5.12	0.984	> 10	0.974	> 4	0.924	> 5.12
NCI-H1417 (small cell lung carcinoma, suspension)	0.955	> 8	0.927	> 2	0.979	> 2	0.824	15	0.89	> 5	0.773	4.65	0.982	> 5.12	0.477	0.856	0.963	> 5.12	0.979	> 10	0.575	0.418	0.94	> 5.12
NCI-H1836 (small cell lung carcinoma, suspension)	0.979	> 8	0.986	> 2	0.987	> 2	0.98	> 20	0.988	> 5	0.877	> 10	0.974	> 5.12	0.466	0.801	0.983	> 5.12	0.984	> 10	0.932	> 4	0.905	> 5.12
NCI-H1838 (lung adenocarcinoma, adherent)	0.961	> 8	0.948	> 2	0.971	> 2	0.965	> 20	0.987	> 5	0.982	> 10	0.969	> 5.12	0.923	> 16	0.964	> 5.12	0.952	> 10	0.939	> 4	0.976	> 5.12
NCI-H1869 (lung squamous cell carcinoma, adherent)	0.959	> 8	0.797	1.08	0.985	> 2	0.966	> 20	0.962	> 5	0.951	> 10	0.9	> 5.12	0.575	1.65	0.928	> 5.12	0.984	> 10	0.963	> 4	0.925	> 5.12
NCI-H2081 (small cell lung carcinoma, suspension)	0.976	> 8	0.986	> 2	0.97	> 2	0.962	> 20	0.96	> 5	0.946	> 10	0.987	> 5.12	0.58	1.68	0.977	> 5.12	0.984	> 10	0.986	> 4	0.978	> 5.12
NCI-H2135 (non-small cell lung carcinoma, adherent)	0.971	> 8	0.973	> 2	0.989	> 2	0.924	> 20	0.99	> 5	0.99	> 10	0.989	> 5.12	0.531	1.21	0.991	> 5.12	0.978	> 10	0.99	> 4	0.894	> 5.12
NCI-SNU-1 (stomach, suspension)	0.876	> 8	0.984	> 2	0.986	> 2	0.929	> 20	0.972	> 5	0.966	> 10	0.95	> 5.12	0.593	1.81	0.965	> 5.12	0.985	> 10	0.978	> 4	0.917	> 5.12

Source: the supplement of paper PMC4967469
